In patent US11925638B2, “Pharmaceutical composition comprising diamino heterocyclic carboxamide compound as active ingredient” (ASTELLAS PHARMA INC., priority 2014, dated 2024):

Tested on: PC9 cells stably expressing AXL (PC9/AXL, AXL/PC9)

## C#Cc1cccc(Nc2ncnc3cc(OCCOC)c(OCCOC)cc23)c1 [erlotinib]
4 days, erlotinib alone up to 3000 nM
  inhibition of proliferation: < 50%
Erlotinib alone at maximum concentration of 3000 nM
  survival rate of the cells: 73%
